Experimental data from PMC4336329 (PLoS ONE, 2015).
In all, about 310,000 compounds went through this assay and about 2,200 (0.71%) showed an effect of 50% or more. The effect is printed as a negative number. The list shows a part of the results.

target: human ether-à-go-go-related gene (hERG) potassium channel (human, UniProt Q12809); assay: primary screen, population patch clamp on CHO cells stably expressing hERG
Sequence (Q12809 whole entry, looked up): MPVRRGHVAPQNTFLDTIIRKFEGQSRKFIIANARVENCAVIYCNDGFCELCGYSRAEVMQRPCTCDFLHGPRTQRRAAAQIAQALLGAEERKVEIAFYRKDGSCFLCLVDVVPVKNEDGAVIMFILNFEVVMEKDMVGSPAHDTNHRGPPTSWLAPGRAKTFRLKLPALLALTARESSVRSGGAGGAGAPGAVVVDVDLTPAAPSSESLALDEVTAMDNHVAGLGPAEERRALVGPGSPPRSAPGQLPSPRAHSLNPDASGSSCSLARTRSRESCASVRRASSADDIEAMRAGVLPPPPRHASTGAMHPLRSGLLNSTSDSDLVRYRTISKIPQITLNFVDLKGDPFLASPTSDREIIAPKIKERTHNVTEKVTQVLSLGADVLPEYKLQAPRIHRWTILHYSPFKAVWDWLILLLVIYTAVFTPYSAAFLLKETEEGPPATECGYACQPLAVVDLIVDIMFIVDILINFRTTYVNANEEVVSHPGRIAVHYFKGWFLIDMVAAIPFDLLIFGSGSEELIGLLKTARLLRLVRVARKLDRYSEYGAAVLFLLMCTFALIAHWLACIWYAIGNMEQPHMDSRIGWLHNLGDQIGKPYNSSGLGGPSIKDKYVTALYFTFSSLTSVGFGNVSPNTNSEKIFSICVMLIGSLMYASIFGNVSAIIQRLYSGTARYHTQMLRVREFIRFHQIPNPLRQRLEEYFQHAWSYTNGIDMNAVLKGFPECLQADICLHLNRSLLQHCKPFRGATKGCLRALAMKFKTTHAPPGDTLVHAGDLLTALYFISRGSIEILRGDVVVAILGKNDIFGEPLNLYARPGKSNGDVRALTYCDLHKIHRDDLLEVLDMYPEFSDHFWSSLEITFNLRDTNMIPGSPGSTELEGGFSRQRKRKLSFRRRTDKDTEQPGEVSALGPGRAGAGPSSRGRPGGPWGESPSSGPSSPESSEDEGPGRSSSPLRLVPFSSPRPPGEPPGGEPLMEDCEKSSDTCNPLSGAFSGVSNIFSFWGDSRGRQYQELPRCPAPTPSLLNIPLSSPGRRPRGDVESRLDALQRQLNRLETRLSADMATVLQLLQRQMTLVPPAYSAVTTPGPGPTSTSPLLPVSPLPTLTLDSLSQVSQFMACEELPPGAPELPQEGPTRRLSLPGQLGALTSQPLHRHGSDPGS

| Structure (SMILES) | hERG current change (%, negative = inhibition) at 1uM |
| --- | --- |
| Cc1cccc(-c2nc(CS(=O)CC(=O)NC(C)CCc3ccccc3)c(C)o2)c1 (stereo not drawn) | 1.68% |
| O=C(Nc1ccccn1)C(=O)Nc1ccccn1 | 6.89% |
| O=C(NCc1cccnc1)c1ccc(CS(=O)(=O)c2ccc(Br)cc2)o1 | -3.1% |
| Cc1ccc(CCNC(=O)C2CCCN(S(=O)(=O)c3cnc[nH]3)C2)cc1 (stereo not drawn) | 7.23% |
| CCOC(=O)CC1C(=O)NCCN1S(=O)(=O)c1ccc(NC(C)=O)cc1 (stereo not drawn) | 11.2% |
| Cc1ccc(S(=O)(=O)NCc2nc(-c3ccccc3)no2)cc1 | 11% |
| CCNC(=S)NNC(=O)CC(C)C | 11.8% |
| COc1ccccc1NS(=O)(=O)c1ccc(NC(=O)Cc2cccs2)cc1 | 11.3% |
| Cc1ccc(S(=O)(=O)CCSc2nc(C)cc(C(F)(F)F)c2C#N)cc1 | -0.18% |
| CN(CC(=O)Nc1ccccc1Cl)C(=O)Cn1cc(C(F)(F)F)ccc1=O | 0.414% |
| CCCCN(C)c1nc(-c2ccco2)c2c(c1C#N)CC(C)(C)OC2 | 10.8% |
| COc1ccccc1NC(=O)c1cc(Cl)nc2ccccc12 | 16.8% |
| CC(=O)Nc1nc2cc3c(cc2s1)OCCO3 | 4.38% |
| COc1ccc(C2NC(=O)NC(C)=C2C(=O)Nc2cc(C)ccc2C)cc1OC (stereo not drawn) | 4.32% |
| O=C1CCCN1C(=O)CCC(=O)N1CCCC1=O | -3.97% |
| C=CCNS(=O)(=O)c1ccc(C(=O)OCc2cc(=O)oc3cc(OC)ccc23)cc1 | 12.1% |
| CN(C)C=NC(=O)c1cc(C(=O)c2ccccc2)c[nH]1 | 13.2% |
| CC(C)(C)SCCNC(=O)/C=C/c1cccc([N+](=O)[O-])c1 | 1.55% |
| CC(=O)Nc1ccc(S(=O)(=O)N(C)CC(=O)N/N=C/c2cccs2)cc1 | 10.6% |
| O=C(NNC(=O)c1ccc([N+](=O)[O-])cc1)c1ccc(Br)cc1 | 16.2% |
| COCCCNCC#CCOc1ccc(OC)cc1.O=C(O)C(=O)O | 10.8% |
| CCOc1ccc(/C(O)=C2/C(=O)C(=O)N(CCOCCO)C2c2ccccc2)cc1 (stereo not drawn) | 9.82% |
| Cc1onc(-c2ccccc2)c1C(=O)Nc1cccnc1 | 2.74% |

| Structure (SMILES) | hERG current change (%, negative = inhibition) at 1uM |
| --- | --- |
| COC(=O)c1cc(NC(=S)N2CCN(C(=O)C3CCCO3)CC2)cc(C(=O)OC)c1 (stereo not drawn) | 1.76% |
| CCc1ccc(NC2=NCC(=O)N2Cc2ccc3c(c2)OCO3)cc1 | 13.1% |
| CN(CC(=O)NC1(C)CCS(=O)(=O)C1)S(=O)(=O)c1ccc(Cl)cc1 (stereo not drawn) | 13.2% |
| Cc1c(C(=O)N2CCC(Cc3ccccc3)CC2)sc2ncnc(N3CCC(C)CC3)c12 | 9.72% |
| Cc1cc(C)cc(NC(=S)NC2CC3CCC(C2)N3Cc2ccco2)c1 (stereo not drawn) | -48.1% |
| COCCN(C(=O)CSc1nnc(-c2cccc(F)c2)n1N)c1c(N)n(CC(C)C)c(=O)[nH]c1=O | 14.8% |
| COCc1c(Br)c(C)[nH]c(=O)c1C#N | 8.35% |
| COc1cc(Nc2cc(C)nc3nc(C)nn23)cc(OC)c1OC | 7.68% |
| Cc1ccc(C)c(S(=O)(=O)N2CCN(C(=O)CSc3ccccc3)CC2)c1 | 6.6% |
| Cc1ccc(S(=O)(=O)/N=C(\Nc2cc(C)on2)c2ccc(Cl)cc2)cc1 | 0.503% |
| O=C(c1cc(COc2ccc3ncccc3c2)on1)N1CCCC1 | 13.5% |
| COc1ccc(N(CC(=O)Nc2ccc(C)cn2)S(=O)(=O)c2c(C)nn(C)c2C)cc1 | 5.85% |
| CC1C(=O)C(C)C(c2cccs2)NC1c1cccs1 (stereo not drawn) | 9.2% |
| COC(=O)[C@@]12CCCN1[C@H](c1ccc(-c3ccc(OC)cc3)c(OC)c1)[C@H]1C(=O)N(C)C(=O)[C@H]12.O=C(O)C(F)(F)F | 4.72% |
| C=CCNc1cnn(CC(C)=O)c(=O)c1Br | -0.682% |
| O=C1CCCc2c1cc(C(=O)NCCCN1CCOCC1)c(=O)n2-c1ccc(Cl)cc1 | 11.5% |
| CN(c1ccc(C(=O)NCC2CCCO2)cc1)S(C)(=O)=O (stereo not drawn) | 16.1% |
| COc1ccc(CNC(=O)CN(C(=O)c2csnn2)c2cnc3ccccc3c2)cc1 | 7.09% |
| COC(=O)c1cc(C)sc1NC(=O)C1C2C=CC(CC2)C1C(=O)O (stereo not drawn) | 8.38% |
| Cc1cc(C)c(C#N)c(N2CCN(c3ccccc3F)CC2)n1 | 17.8% |
| CC(=O)c1ccccc1NS(=O)(=O)c1c(C)nn(-c2ccccc2)c1C | 8.49% |
| COc1ccc(C(=O)Nc2nc(-c3ccc(OC)cc3)c(-c3ccc([N+](=O)[O-])cc3)s2)cc1 | 17.2% |
